# PubChem BioAssay AID485281 (National Center for Advancing Translational Sciences (NCATS), 2010)
# About 260 (0.074%) of roughly 350,000 compounds were called active. The shares of active, inactive and inconclusive entries below differ from those in the screen. The call rests on the fitted dose curve; in most records, active means well fitted inhibition curve with a large enough effect; inconclusive means small, poorly fitted or top-dose-only effect; inactive means no such curve, though single readings can be large or run the other way. Potencies of inconclusive entries are doubtful fits and often do not repeat.
# Molecular target: Ferritin light chain (Equus caballus) (UniProt P02791)
# UniProt P02791, sequence (P02791 whole entry, looked up): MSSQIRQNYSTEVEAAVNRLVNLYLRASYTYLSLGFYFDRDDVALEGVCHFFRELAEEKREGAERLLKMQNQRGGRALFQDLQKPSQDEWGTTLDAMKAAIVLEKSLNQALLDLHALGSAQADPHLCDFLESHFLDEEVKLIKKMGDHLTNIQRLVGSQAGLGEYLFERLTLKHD
# Assay: qHTS Assay for Identification of Novel General Anesthetics; further: nearly all actives have a fitted effect of over 20% in size
# Settings: apoferritin/1-aminoanthracene competitive binding, fluorescence; series mostly up to 77.5 µM
# Method in brief: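 In PBS, apoferritin at 10 uM is loaded with 1-AMA from a 50% saturated solution. After 10 min of compound exposure at ambient temperature, reduced 535 nm fluorescence indicates probe displacement.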
# Potency means the concentration at half of the fitted maximal effect; tags describe the fitted curve by direction and shape.
row,Compound,Potency
1,COc1ccc(OCCNc2c([N+](=O)[O-])c(=O)oc3ccccc23)cc1,"inconclusive: 35.5 µM [inhibitor, partial curve]"
2,N#Cc1c(NC(=O)c2cc(C3CC3)on2)sc2c1CCC2,"inconclusive: 35.5 µM [inhibitor, partial curve]"
3,COC(=O)C1=C(C)OC(N)=C(C#N)C1c1cccnc1 (stereo unspecified),inactive
4,NC(=S)n1[nH]c(-c2ccc([N+](=O)[O-])cc2)c(N=Nc2ccccc2[N+](=O)[O-])c1=O,inactive
5,Cc1cc(NC(=O)c2ccccc2F)ccc1-c1nc2ccccc2s1,inactive
6,O=C(c1ccc2c(c1)C(=O)N(CCCO)C2=O)c1ccc2c(c1)C(=O)N(CCCO)C2=O,inactive
7,Nc1cc(N)nc(SCc2ccc(Cl)cc2)n1,"inconclusive: 12.6 µM [inhibitor, partial curve]"
8,Cc1ccc(-c2c3c(=O)n(C)c(=O)n(C)c3cn2Cc2ccccc2)cc1,inactive
9,Cc1c(C(=O)Nc2ccc(F)cc2F)oc2c1-c1nn(Cc3c(F)cccc3Cl)cc1CC2,"inconclusive: 35.5 µM [inhibitor, single point]"
10,CCc1ccc(N2CC(c3nnc(NC(=O)c4ccco4)s3)CC2=O)cc1 (stereo unspecified),inactive
11,COc1ccc(C)cc1NC(c1nnc(-c2ccccc2)o1)c1ccc(F)cc1Cl (stereo unspecified),inactive
12,COc1ccc(C)cc1NC(=O)CN(C)S(=O)(=O)c1cccs1,"inconclusive: 35.5 µM [inhibitor, single point]"
13,CC1=C(C(N)=O)C(c2ccc3c(c2)OCO3)n2nc(-c3cccc(C)c3)nc2N1 (stereo unspecified),"inconclusive: 20 µM [inhibitor, partial curve]"
14,COc1ccc(CCN2C(=S)NC3CC2(C)Oc2ccc([N+](=O)[O-])cc23)cc1OC (stereo unspecified),"inconclusive: 22.4 µM [inhibitor, partial curve]"
15,CC(=O)c1ccc(OCc2cc(C(=O)N(C)C(C)c3nccs3)no2)cc1 (stereo unspecified),"inconclusive: 31.6 µM [inhibitor, partial curve]"
16,CNc1nc(-c2ccc3c(c2)CCN3C(=O)c2ccccc2F)c(C)s1,"inconclusive: 22.4 µM [inhibitor, partial curve]"
17,CCOc1ccc(C2=NC(c3ccncc3)=Nc3ccc(C)cc3N2)cc1OCC,"inconclusive: 39.8 µM [inhibitor, partial curve]"
18,CCCCCCCCCCCCCCCCOP(=O)([O-])OCC[N+](C)(C)C,"inconclusive: 25.1 µM [inhibitor, partial curve]"
19,CC(C)C(=O)NC(Nc1cccc2cccnc12)C(Cl)(Cl)Cl (stereo unspecified),"inconclusive: 28.2 µM [inhibitor, partial curve]"
20,Cn1c(SCC(=O)N2CCN(c3ccccc3)CC2)nnc1-c1cc2ccccc2o1,inactive
21,CC(C)(C)SCCNC(=O)c1ccccc1,"inconclusive: 39.8 µM [inhibitor, partial curve]"
22,Cc1ccc(Sc2ncnc3onc(C)c23)cc1,"inconclusive: 22.4 µM [inhibitor, partial curve]"

row,Compound,Potency
1,CCCSCCCNC(=O)C1CCN(C(=O)c2cnn(-c3ccccc3)c2-n2cccc2)CC1,inactive
2,COc1ccc(CNC(=O)Cn2c(=O)nc(-c3ccccc3)c3cc(Cl)ccc32)cc1OC,"inconclusive: 50.1 µM [inhibitor, single point]"
3,Cc1ccc(C(=O)OCC(=O)NCCC2=CCCCC2)cc1N,"inconclusive: 31.6 µM [inhibitor, partial curve]"
4,Cc1ccc2cc(CN(C(=O)c3ccco3)c3cccc(C)c3C)c(=O)[nH]c2c1,inactive
5,CC1CC(C)CN(CC(=O)Nc2ccc3c(c2)OCCO3)C1 (stereo unspecified),inactive
6,COc1cc(NC(=O)CN2C(=O)c3ccccc3Sc3ccc(C(=O)N4CCOCC4)cc32)cc(OC)c1OC,"inconclusive: 28.2 µM [inhibitor, partial curve]"
7,O=S(=O)(Nc1nc2ccccc2[nH]1)c1ccc(Cl)cc1,"inconclusive: 39.8 µM [inhibitor, partial curve]"
8,O=C(Nc1ccc(Cc2ccncc2)cc1)C1CCC(N2C(=O)C3CC=CCC3C2=O)CC1 (stereo unspecified),"inconclusive: 28.2 µM [inhibitor, partial curve]"
9,O=C(CCl)N(c1ccc(Cl)cc1)c1c[nH]c2ccccc12,"inconclusive: 39.8 µM [inhibitor, single point]"
10,COc1cc(/C=c2\s/c(=C(/C#N)C(=O)N3CCCC3)n(-c3ccccc3)c2=O)ccc1O,inactive
11,O=[N+]([O-])C(=C1SCCS1)C(=C(Cl)Cl)N1CCCCC1,"inconclusive: 14.1 µM [inhibitor, partial curve]"
12,CC(C)(O)c1[nH]c2ccc(C(F)(F)F)cc2c1C(C)(C)O,"inconclusive: 39.8 µM [inhibitor, partial curve]"
13,C=CCn1c(C)csc1=Nc1ccccc1C,"inconclusive: 28.2 µM [inhibitor, partial curve]"
14,Cc1ccc2c(C)c(C(=O)N3CCC(O)(c4ccccc4)CC3)oc2c1C,"inconclusive: 39.8 µM [inhibitor, single point]"
15,CCOC(=O)C1=C(OCc2ccc(Cl)cc2)C2C=C(C)C=CC2N=C1 (stereo unspecified),"inconclusive: 22.4 µM [inhibitor, partial curve]"
16,CCC(C)NC(=O)C1CCCN(c2nc(C)cc(OC)n2)C1 (stereo unspecified),inactive
17,COc1cccc(/C=C2\SC(=S)N(CCCC(=O)N(CCO)c3ccccc3)C2=O)c1,"inconclusive: 15.8 µM [inhibitor, partial curve]"
18,CCOC(=O)c1ccc(CNC(=O)c2cc(C(C)(C)C)oc2C)o1,"inconclusive: 31.6 µM [inhibitor, single point]"
19,C[C@]12C=CC(=O)C=C1CC[C@@H]1[C@H]3C[C@@H](O)[C@](O)(C(=O)CO)[C@@]3(C)C[C@H](O)[C@]12F,inactive
20,Cn1cc(CNC(=O)c2cc(COc3ccc4c(c3)CCCC4)on2)cn1,"inconclusive: 35.5 µM [inhibitor, partial curve]"
21,COc1ccc(CSc2nc3ccncc3n2CC(=O)Nc2cc(C)cc(C)c2)cc1,inactive
22,Cc1csc(SCC(=O)NCCc2ccc(Cl)cc2Cl)n1,"inconclusive: 25.1 µM [inhibitor, partial curve]"

row,Compound,Potency
1,CCCCC(C(=O)NC(C)(C)C)N(Cc1ccccc1)C(=O)c1snc(C(N)=O)c1N (stereo unspecified),"inconclusive: 31.6 µM [inhibitor, single point]"
2,Cc1ccc(NC(=O)c2cc(-c3cccc(O)c3)on2)cc1C,"inconclusive: 3.98 µM [inhibitor, full curve, poor fit]"
3,COc1ccc(N(CC(=O)NC2CCCC2)C(=O)c2ccc(N3CCCCC3)nc2)cc1,"inconclusive: 44.7 µM [inhibitor, partial curve]"
4,O=C(CSC1=NCCS1)Nc1cccc(F)c1,"inconclusive: 35.5 µM [inhibitor, partial curve]"
5,Cc1ccc(CSC2=Nc3ccccc3C3=NC(CCC(=O)NC4CCCCC4)C(=O)N23)cc1 (stereo unspecified),"inconclusive: 3.55 µM [inhibitor, partial curve]"
6,CCCCN(CCCC)CCNC(=O)Cn1nc(CC)n2c(cc3sccc32)c1=O,inactive
7,Cn1cnnc1Sc1ccc(C(=O)NCCC23CC4CC(CC(C4)C2)C3)cc1[N+](=O)[O-],"inconclusive: 20 µM [inhibitor, partial curve]"
8,Cc1cccc(NC(=O)CSc2ncc(-c3ccc(Br)cc3)[nH]2)c1,"inconclusive: 3.16 µM [inhibitor, full curve]"
9,COc1cc(C(=S)N2CCOCC2)ccc1OS(=O)(=O)c1ccc(C)cc1,"inconclusive: 15.8 µM [inhibitor, partial curve]"
10,O=C(NC(=S)Nc1ccccc1Br)C1CCCC1,"inconclusive: 28.2 µM [inhibitor, partial curve]"
11,COc1cccc(-n2nnc3c(=O)n(Cc4ccc(C)cc4)cnc32)c1,"inconclusive: 6.31 µM [inhibitor, partial curve]"
12,O=C1c2ccccc2S(=O)(=O)N1CC(O)Cn1c2ccccc2c2ccccc21 (stereo unspecified),"inconclusive: 3.16 µM [inhibitor, full curve, poor fit]"
13,Cc1ccsc1-c1nc(-c2ccccc2)c(-c2ccccc2)[nH]1,inactive
14,O=C(CC1C(=O)NCCN1Cc1ccccc1)NCCC1=CCCCC1 (stereo unspecified),"inconclusive: 35.5 µM [inhibitor, partial curve]"
15,COc1cc(/C=C(/C#N)C(=O)c2c(C)[nH]c3ccccc23)ccc1OCC#N,"inconclusive: 35.5 µM [inhibitor, single point]"
16,CC(C)c1ccc(CNc2c([N+](=O)[O-])c(=O)oc3ccccc23)cc1,"inconclusive: 17.8 µM [inhibitor, partial curve]"
17,Cc1ccc(C)n1-c1ccc(-c2nnc3n2CCCCC3)s1,"inconclusive: 44.7 µM [inhibitor, single point]"
18,Cc1cccc2sc(NC(=O)C3CCN(S(=O)(=O)c4cc([N+](=O)[O-])ccc4Cl)CC3)nc12,inactive
19,O=C(CSc1ncccn1)Nc1cc(Cl)ccc1[N+](=O)[O-],"inconclusive: 20 µM [inhibitor, partial curve]"
20,Cn1c(C(=O)NCCN2CCc3ccccc3C2)cc2c(=O)n(C)c3ccccc3c21,"inconclusive: 28.2 µM [inhibitor, partial curve]"
21,CCOC(=O)c1c(NC(=O)CN2CCCCC2)sc2c1CCN(C(=O)OCC)C2,"inconclusive: 25.1 µM [inhibitor, partial curve]"
22,COc1ccc([C@]23Cc4cc(C#N)ccc4C(O2)C2=C(CC4(CCCCC4)OC2=O)O3)cc1,"inconclusive: 2.82 µM [inhibitor, partial curve]"
